Data reported in patent US20240122179A1, “AUXINIC HERBICIDES AND METHODS OF USE THEREOF” (CORTEVA AGRISCIENCE LLC, priority 2021, published 2024).
Several values for one entry are separate records, joined by “and”; a condition that tells them apart may be missing. Identical values can stand only once. For part of these data: The name of at least one read-out is uncertain. For part of these data: For at least one compound, name, drawing or mass did not settle the structure.

How the values were obtained:
[1] = test system: Ambrosia artemisiifolia (AMBEL); assay: Postemergence herbicide evaluation, percent reduction in plant size vs untreated control, 21 days after treatment; type: in vivo, Ambrosia artemisiifolia (common ragweed)
Method: (§1) Plants were grown in a soil media composed of 90% by volume Promix BX (Premier Tech Horticulture, Quakertown, PA) and 10% Profile Greens Grade (Profile Products LLC, Buffalo Grove, IL). Promix BX contains approximately 83% Sphagnum Peat Moss, 13% Perlite, 5% vermiculite, and proprietary amounts of limestone, starter fertilizer, and wetting agent. Profile Greens Grade is a sand-sized granule formed from calcining illite and montmorillonite clay. Several seeds of each species were planted in 10 cm square pots and top watered twice daily. Plant material was propagated in a warm greenhouse with temperature ranging from 25 to 28° C. and 50 to 60% relative humidity at the Corteva Global Headquarters (Indianapolis, Indiana, USA). Natural light was supplemented with 1000-watt metal halide overhead lamps with an average illumination of 500 μE m^−2 s^−1 photosynthetic active radiation for 16 consecutive hours each day. Plants were top-watered prior to herbicide application and sub-watered after herbicide application.
(§2) Appropriate amounts of test materials were weighed out into glass vials in their technical form to deliver either 140 or 280 g acid equivalent (ae)/ha. The samples were dissolved in 3 ml of Solvent 1. Solvent 1 is 97% acetone and 3% dimethyl sulfoxide and serves as a general-purpose solvent (GPS) for dissolving technical materials. […] The samples were then diluted to their final concentration using 17 ml of solvent 2 for a total of 20 ml of spray solution. Solvent 2 contains 41.58% GPS, 45.53% water, 11.88% isopropyl alcohol, 0.99% crop oil concentrate and 0.02% Trition X-155 surfactant. All percentages are listed on a volume basis. Dicamba diglycolamine was applied as a formulated herbicide, Clarity™ and diluted with solvent 2 to compare all materials in the same spray solution.
(§3) Herbicide applications were made to 3 to 4 replicates of each plant species at the 2 to 8 leaf stage, depending on the species. Treatments were applied with a research track-sprayer (Generation III Research Sprayer manufactured by DeVries Manufacturing in Hollandale, MN, USA) calibrated to deliver a spray volume of 187 L/ha. The track-sprayer was fitted with an 8003E nozzle from Spray Systems Company (North Avenue and Schmale Road, P.O. Box 7900, Wheaton, IL 60187), and used a spray pressure of 276 kPa pressure and a speed of 3.1 km/h. The nozzle height was 46 cm above the plant canopy. The experimental design used for the trials was a randomized complete block with 3 or 4 replications per treatment. After application, plants were placed on carts according to the randomization and returned to the greenhouse. Plants were sub-watered after treatment with Indianapolis city water or fertilized three times a week with a commercial fertilizer solution (Jack's Professional 15-5-15 4 Ca 2 Mg fertilizer (manufactured by JR PETERS INC., 6656 Grant Way, Allentown, PA 18106; www.jrpeters.com). Percent visual control assessments were made on a scale of 0 to 100% (where 0 was no control and 100 was complete plant death) at 7, 14, and 21 days after treatment.
(§4) In conformity with the methods outlined in Example 49, the effect of representative experimental compounds on the growth of Ambrosia artemisiifolia (AMBEL), (common ragweed), was determined at 2 different levels (respectively, 140 and 280 g acid equivalent (ae)/ha) of the experimental actives tested. Plants were treated with one of the compounds, a control plant was not treated. Twenty-one days after treatment, the plants were measured. The data is present as a percent reduction in plant size relative to the untreated control.

Kochia scoparia (KCHSC) = assay: as above; type: in vivo
Method: as §1, §2, §3
as §4, with “Kochia scoparia (KCHSC)” for “Ambrosia artemisiifolia (AMBEL), (common ragweed),”

[2] = Volatility of compounds measured by thermogravimetric analysis (TGA), rate of weight loss; type: physicochemical; details: estimates of volatility
Text: Briefly, the rate of weight loss measured in units of […]g/min can be used to determine vapor pressure as shown by the simplified equation: wherein, k is the intrinsic volatility and A is the surface area, Referring now to FIG. 2. A graph of weight loss as function of time for solid samples produces a linear curve; the slope of the curve is the rate of weight loss. When this method is used to measure the volatility of aqueous salt concentrates or liquid concentrates, the water or acetone present in the sample volatilizes before the sample of interest. The first linear loss region of the curve is the loss of water or acetone and the second linear region is characteristic of the sample of interest. In order to illustrate the difference in volatility between some of the compounds disclosed herein and the widely used herbicide dicamba, data from both the compounds and dicamba are presented Table 3 and in FIG. 1.

Amaranthus rudis (AMATA) = assay: Postemergence herbicide evaluation, percent reduction in plant size vs untreated control, 21 days after treatment; type: in vivo, Amaranthus rudis (tall water hemp)
Method: as §1, §2, §3
as §4, with “Amaranthus rudis (AMATA), common name tall water hemp,” for “Ambrosia artemisiifolia (AMBEL), (common ragweed),”

[3] = test system: Amaranthus palmeri (AMAPA); assay: as above; type: in vivo, Amaranthus palmeri (Palmer amaranth)
Method: as §1, §2, §3
as §4, with “Amaranthus palmeri (AMAPA), common name, Palmer amaranth,” for “Ambrosia artemisiifolia (AMBEL), (common ragweed),”

[4] = test system: Conyza canadensis (L.) (ERICA); assay: as above; type: in vivo, Conyza canadensis (L.) (Horseweed); details: rate 280 g ae/ha
Method: as §1, with “application. […]” for “application.”
In conformity with the methods outlined in Example 49, the effect of representative experimental compounds on the growth of Conyza canadensis (L.), (ERICA), common name, Horseweed, was determined at 2 different levels (respectively, 140 and 280 g acid equivalent (ae)/ha) of the experimental actives tested. […] Twenty-one days after treatment, the plants were measured. […]

[5] = R-AMAPA, rate 140 g ae/ha, percent reduction vs untreated control, 21 days after treatment
[6] = R-AMAPA, rate 280 g ae/ha, percent reduction vs untreated control, 21 days after treatment

Compound | Control/Injury ([1]; rate 140 g ae/ha) | Control/Injury (Kochia scoparia (KCHSC); rate 280 g ae/ha) | Volatility [2] | Control/Injury (Amaranthus rudis (AMATA); rate 140 g ae/ha) | Control/Injury (Amaranthus rudis (AMATA); rate 280 g ae/ha) | Control/Injury ([1]; rate 280 g ae/ha) | Control/Injury [3, 5] | Control/Injury (Kochia scoparia (KCHSC); rate 140 g ae/ha) | Control/Injury [3, 6] | Control/Injury ([3]; AMAPA, rate 140 g ae/ha) | Control/Injury ([3]; AMAPA, rate 280 g ae/ha) | Control/Injury [4] | Control/Injury (Kochia scoparia (KCHSC); rate 140 g ae/ha, percent reduction vs untreated, 21 days after treatment) | Control/Injury (Kochia scoparia (KCHSC); rate 280 g ae/ha, percent reduction vs untreated, 21 days after treatment)
COc1c(Cl)ccc(Cl)c1C(=O)OCCOCCOC(=O)c1c(Cl)ccc(Cl)c1OC [Compound A-55] | 20 | 20 |  |  |  |  |  |  |  |  |  |  |  | 
COc1c(Cl)ccc(Cl)c1C(=O)OCOC(=O)N(C(C)C)C(C)C [Compound A-52] |  |  | 1.19 ng/min |  |  |  |  |  |  |  |  |  |  | 
COc1c(Cl)ccc(Cl)c1C(=O)ONC(=O)c1cccnc1 [Compound A-94] | 93 |  |  | 81 | 70 and 99 | 98 |  |  |  |  |  |  |  | 
COc1c(Cl)ccc(Cl)c1C(=O)O/N=C(\C)c1ccccc1 [Compound A-46] | 95 | 99 |  | 25 and 50 |  | 90 and 95 | 70 and 75 | 100 and 90 |  |  |  |  |  | 
COc1c(Cl)ccc(Cl)c1C(=O)OCOC(=O)c1ccccc1 [Compound A-51] | 85 | 95 |  | 50 and 75 and 98 | 85 and 75 and 100 | 98 | 100 | 90 and 95 | 92 and 85 |  |  |  |  | 
COc1c(Cl)ccc(Cl)c1C(=O)O/N=C(\N)C(C)C [Compound A-48] | 78 and 90 |  |  | 75 | 95 and 99 | 98 | 75 | 98 and 92 | 95 |  |  |  |  | 
COc1c(Cl)ccc(Cl)c1C(=O)O/N=C/c1ccc(/C=N/OC(=O)c2c(Cl)ccc(Cl)c2OC)cc1 [Compound A-57] | 85 and 90 | 99 | 1 ng/min | 80 and 75 | 90 and 99 and 78 | 99 | 87 and 80 and 50 | 95 and 98 | 80 |  |  |  |  | 
COc1c(Cl)ccc(Cl)c1C(=O)O/N=C(\N)c1ccccc1 [Compound A-49] | 95 and 100 | 95 and 92 |  | 98 and 50 and 100 | 100 and 99 and 90 | 100 | 100 and 80 | 92 and 80 | 99 and 92 |  |  |  |  | 
COc1c(Cl)ccc(Cl)c1C(=O)OCOC(=O)c1c(Cl)ccc(Cl)c1OC [Compound A-53] | 75 and 55 | 92 |  |  | 50 and 85 and 75 | 50 | 85 |  | 100 and 90 |  |  |  |  | 
COc1c(Cl)ccc(Cl)c1C(=O)O/N=C(\C)c1cccnc1 [Compound A-47] | 98 and 100 |  | 0.58 ng/min | 100 and 90 and 50 | 90 | 98 | 100 and 95 | 99 and 100 | 90 and 100 |  |  |  |  | 
COc1c(Cl)ccc(Cl)c1C(=O)OCc1ccccc1 [Compound A-44] | 50 and 75 and 60 | 78 | 1.31 ng/min | 50 and 40 and 25 | 70 and 65 | 75 and 78 | 75 and 85 |  | 90 and 100 |  |  |  |  | 
COc1c(Cl)ccc(Cl)c1C(=O)O/N=C(\N)c1cccnc1 [Compound A-50] | 85 and 100 | 100 |  | 78 and 80 | 100 and 85 | 95 | 90 and 85 | 100 | 90 and 100 |  |  |  |  | 
COc1c(Cl)ccc(Cl)c1C(=O)O/N=C(\N)c1ccccc1 [Compound A-150] | 90 and 91 and 87 |  |  | 85 and 90 and 64 | 100 and 75 | 99 and 93 |  |  |  | 75 and 93 | 97 and 95 | 98 | 93 | 100
COc1c(Cl)ccc(Cl)c1C(=O)Nc1ccncc1 [Compound A-61] | 90 |  |  | 75 and 95 | 100 | 100 | 95 and 98 | 99 and 92 |  |  |  |  |  | 
